Experimental data from the supplement of paper PMC2702839.
Where a name gives a salt, the structure may show the parent alone. Some of the results follow.

Each molecule was assayed on Schistosoma mansoni schistosomula (assay: phenotypic hit in primary schistosomula screen (any phenotype vs DMSO control) (binary (1 = hit, 0 = no phenotype)); higher = active (phenotype induced)). Conditions: 1 µM; time (d): 7.

Phenotypic hit, active:
C[C@H]1O[C@@H](n2cc(F)c(=O)[nH]c2=O)[C@H](O)[C@@H]1O [5-fluoro-5'-deoxyuridine] 1
CC(=O)Oc1cc2c(c(C)c1OC(C)=O)CC=C1[C@@]2(C)CC[C@@]2(C)C3C[C@](C)(C(=O)O)CC[C@]3(C)CC[C@]12C (stereo not given in full) [dihydrocelastryl diacetate] 1
NC[C@@H]1CC[C@@H](N)[C@@H](O[C@H]2[C@H](O)[C@@H](O[C@H]3O[C@H](CO)[C@@H](O)[C@H](N)[C@H]3O)[C@H](N)C[C@@H]2N)O1 [dibekacin] 1

Phenotypic hit, inactive:
CCCCCN(CCCCC)C(=O)C(CCC(=O)O)NC(=O)c1ccc(Cl)c(Cl)c1 (stereo not given) [Lorglumide sodium] 0
CC(C)c1c(O)ccc2c1CC[C@H]1C(C)(C)CCC[C@]21C [totarol] 0
C=C1C(=O)O[C@H]2C[C@@H]1C(OC(C)=O)C/C(C)=C/CC/C(C)=C/CC[C@@]2(C)O (stereo not given in full) [crassin acetate] 0
CCC/C=C/C=C/C1C[C@@H](O)[C@@H](O)C(=O)[C@H]1C=O (stereo not given in full) [frequentin] 0
CCCC1O[C@@H]2C[C@H]3[C@@H]4CCC5=CC(=O)C=C[C@]5(C)[C@H]4[C@@H](O)C[C@]3(C)[C@]2(C(=O)CO)O1 (stereo not given in full) [budesonide] 0
O=NN(CCCl)C(=O)NCCCl [carmustine] 0
Nc1nc(N)c2nc(CNc3ccc(C(=O)N[C@@H](CCC(=O)O)C(=O)O)cc3)cnc2n1 [Aminopterin] 0
CC(C(=O)O)c1cccc(C(=O)c2ccccc2)c1 (stereo not given) [ketoprofen] 0
O=c1c(-c2ccc(O)cc2)coc2cc(O)ccc12 [Daidzein] 0
C=C1[C@@H]([C@@]2(C)C=CC(=O)C(C)(C)[C@@H]2CC(=O)OC)CC[C@@]2(C)[C@H](c3ccoc3)OC(=O)[C@H]3O[C@]132 [andirobin] 0
CC(=O)CCCCn1c(=O)c2c(ncn2C)n(C)c1=O [Pentoxifylline] 0
O=C(O)C=C1CCCc2ccccc2C1O (stereo not given) 0
COc1ccc(-c2coc3cc(O)ccc3c2=O)c(OC)c1O [koparin 2'-methyl ether] 0
O=C(CCc1ccc(O)cc1)c1c(O)cc(O)cc1O[C@@H]1OC(CO)[C@@H](O)[C@@H](O)C1O (stereo not given in full) [phloridzin] 0
C/C1=C2/[N-][C@H]([C@H](CC(N)=O)[C@@]2(C)CCC(=O)NC[C@@H](C)OP(=O)([O-])O[C@H]2[C@@H](O)[C@@H](n3cnc4cc(C)c(C)cc43)O[C@@H]2CO)[C@]2(C)N=C(/C(C)=C3N=C(/C=C4N=C1[C@@H](CCC(N)=O)C\4(C)C)[C@@H](CCC(N)=O)[C@]\3(C)CC(N)=O)[C@@H](CCC(N)=O)[C@]2(C)CC(N)=O.[Co] [cobalamine] 0
CCCCCNC(=N)N/N=C/c1c[nH]c2ccc(OC)cc12 [tegaserod maleate] 0
O=C(Oc1ccccc1C(=O)O)c1ccccc1O [salsalate] 0
O=C(O)c1ccc(S(=O)(=O)N(Cl)Cl)cc1 [halazone] 0
COc1c(C)c2c(c(O)c1C/C=C(\C)CCC(=O)O)C(=O)OC2 [mycophenolic acid] 0
CC(C)c1ccc2c(c1)CC[C@H]1[C@](C)(CN)CCC[C@]21C [18-aminoabieta-8,11,13-triene sulfate] 0
CCN1CCCC(OC(=O)C(c2ccccc2)c2ccccc2)C1 (stereo not given) [piperidolate hydrochloride] 0
Nc1ccc(C(=O)O)cc1 [potassium p-aminobenzoate] 0
CCCCCC(=O)O[C@]1(C(C)=O)CC[C@H]2[C@@H]3CCC4=CC(=O)CC[C@]4(C)[C@H]3CC[C@@]21C [hydroxyprogesterone caproate] 0
NC[C@@H](O)c1ccc(O)c(O)c1 [L(-)-Norepinephrine bitartrate] 0
CC1(C)OC(=O)C[C@H](O)[C@]2(C)[C@H]3CC[C@@]4(C)[C@H](c5ccoc5)OC(=O)[C@H]5O[C@]54[C@]3(C)C(=O)C[C@@H]12 [deacetylnomilin] 0
O=C(O[C@@H]1Cc2c(O)cc(O)cc2O[C@@H]1c1ccc(O)c(O)c1)c1cc(O)c(O)c(O)c1 [epicatechin monogallate] 0
OC(c1cc(C(F)(F)F)nc2c(C(F)(F)F)cccc12)C1CCCCN1 (stereo not given) [mefloquine] 0
CNCCCC12CCC(c3ccccc31)c1ccccc12 [maprotiline hydrochloride] 0
CC1(C)O[C@@H]2C[C@H]3[C@@H]4CCC5=CC(=O)CC[C@]5(C)[C@@]4(F)[C@@H](O)C[C@]3(C)[C@]2(C(=O)CCl)O1 [halcinonide] 0
C[C@]12C=CC(=O)C=C1CC[C@H]1[C@@H]3C[C@@H](O)[C@](O)(C(=O)CO)[C@@]3(C)C[C@H](O)[C@@]12F [triamcinolone] 0
NC(N)=NCCC[C@H](NC(=O)[C@@H](N)Cc1ccc(O)cc1)C(=O)O [kyotorphin acetate] 0
Cc1cc(C)cc(OCC2CNC(=O)O2)c1 (stereo not given) [metaxalone] 0
COc1ccc(C(=O)O)c(O)c1OC [2-hydroxy-3,4-dimethoxybenzoic acid] 0
CCN(CC)CCOC(=O)c1ccc(N)cc1 [procaine hydrochloride] 0
CN=C(N)NCCCC(N)C(=O)O (stereo not drawn) [ng-methyl-l-arginine acetate] 0
CC(=O)O[C@@H]1CC2C(C)(C)C=CC(=O)[C@]2(C)C2CC[C@@]3(C)[C@H](c4ccoc4)OC(=O)C4OC43[C@@]21C (stereo not given in full) [isogedunin] 0
CC(=O)N[C@@H](CS)C(=O)O [L-Cysteine, N-Acetyl-] 0
CC(=O)O[C@H]1C[C@@]2(C)[C@@H](C[C@@H](O)[C@H]3[C@@]4(C)CC[C@@H](O)[C@@H](C)[C@@H]4CC[C@@]32C)/C1=C(\CCC=C(C)C)C(=O)O [fusidic acid] 0
COc1cccc(-c2cc(=O)c3cc(OC)ccc3o2)c1 [6,3'-dimethoxyflavone] 0
COc1cc(OC)c2c(c1)O[C@H](c1cc(OC)c(OC)c(OC)c1)[C@H](OC(=O)c1cc(OC)c(OC)c(OC)c1)C2 [epigallocatechin octamethyl ether] 0
O=c1cc(-c2ccccc2)oc2cc(O)c(O)c(O)c12 [baicalein] 0
Nc1ccc(S(=O)(=O)Nc2cnc3ccccc3n2)cc1 [sulfaquinoxaline sodium] 0
O=C(O)CN(CC(=O)O)Cc1cc2c(cc1O)Oc1cc(O)c(CN(CC(=O)O)CC(=O)O)cc1C21OC(=O)c2ccccc21 [calcein] 0
COc1ccc(C[C@H](N)C(=O)N[C@H]2[C@@H](O)[C@H](n3cnc4c(N(C)C)ncnc43)O[C@@H]2CO)cc1 [puromycin hydrochloride] 0
Cc1ccnc(NS(=O)(=O)c2ccc(N)cc2)n1 [sulfamerazine] 0
CCCCNc1cc(C(=O)O)cc(S(N)(=O)=O)c1Oc1ccccc1 [bumetanide] 0
COc1c(C(C)C)oc2cc3oc(=O)ccc3cc12 [peucedanin] 0
N[C@H](C(=O)O)[C@@H]1CC(Cl)=NO1 [acivicin] 0
CC(=O)Oc1ccccc1C(=O)Oc1ccccc1C(=O)O [diplosalsalate] 0
COc1ccc2cc([C@H](C)CO)ccc2c1 [naproxol] 0
CC(=O)O[C@]1(C(C)=O)CC[C@H]2[C@@H]3C=C(Cl)C4=CC(=O)[C@@H]5C[C@@H]5[C@]4(C)[C@H]3CC[C@@]21C [cyproterone acetate] 0
N[C@@H]1CONC1=O [D-Cycloserine] 0
O=C(O)Cc1nn(Cc2ccc(Br)cc2F)c(=O)c2ccccc12 [statil] 0
O=C(O)/C=C/c1ccc(O)c(O)c1 [caffeic acid] 0
CC(=O)O[C@H]1CC[C@@]2(C)C(=CC(=O)[C@H]3[C@@H]4CC[C@H]([C@H](C)CCCC(C)C)[C@@]4(C)CC[C@@H]32)C1 [7-oxocholesteryl acetate] 0
CC1=C(/C=C/C(C)=C/C=C/C(C)=C/C=C/C=C(C)/C=C/C=C(C)/C=C/C2=C(C)C(=O)[C@@H](O)CC2(C)C)C(C)(C)C[C@H](O)C1=O [astaxanthin] 0
CC(=O)Oc1ccccc1C(=O)O [aspirin] 0
N=C(N)NS(=O)(=O)c1ccc(N)cc1 [sulfaguanidine] 0
COc1ccc2ccc(=O)oc2c1CC=C(C)C [osthol] 0
CC(=O)O[C@@H]1CC2C(C)(C)[C@H](O)C=C[C@]2(C)C2CC[C@@]3(C)[C@H](c4ccoc4)OC(=O)C4OC43[C@@]21C (stereo not given in full) [gedunol] 0
CC(C)=CCC/C(C)=C/C=C/C(C)=C/C=C/C(C)=C/C=C/C=C(C)/C=C/C=C(C)/C=C/C=C(\C)CCC=C(C)C [lycopene] 0
CC1=C(/C=C/C(C)=C/C=C/C(C)=C/C(=O)O)C(C)(C)CCC1 [tretinon] 0
